From PubChem BioAssay AID485364 (National Center for Advancing Translational Sciences (NCATS), 2010)
In all, about 360,000 compounds went through this assay and about 11,000 (3.1%) were called active. The shares of active, inactive and inconclusive entries below differ from those in the screen. Calls come from the whole dose curve; as a rule, active = well fitted inhibition curve with a large enough effect; inconclusive = small, poorly fitted or top-dose-only effect; inactive = no such curve, though single readings can be large or run the other way. Potencies of inconclusive entries are left out as doubtful fits.

Each compound was assayed against Schistosoma mansoni thioredoxin glutathione reductase (TGR) (UniProt Q962Y6) (assay: qHTS Assay for the Inhibitors of Schistosoma Mansoni Peroxiredoxins). Conditions: purified TGR, DTNB reduction, TNB absorbance 405 nm; series mostly up to 114 µM.
Outline: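 TGR 20 nM + NADPH 100 uM (dispensed conc.), cpd preinc 15 min RT; start with NADPH (500 uM addition) then DTNB (15 mM addition). Kinetic TNB absorbance, 405 nm filter. Four-parameter Hill fit across titration.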
Note: nearly all actives have a fitted effect of over 60% in size.
Potency is the fitted concentration of half-maximal effect; tags give direction and shape of the fitted curve.

SMILES	Potency
Cc1ccc(Nc2nnc(C)c(=O)[nH]2)cc1	inactive
O=C(Cc1cccs1)N/N=C\c1ccc([N+](=O)[O-])s1	inconclusive [inhibitor, full curve]
O=C(C1=C(O)C(=O)N(CCCN2CCOCC2)C1c1ccccn1)c1cccs1 (stereo not given)	inactive
O=C(CSc1nnc(-c2cccnc2)n1Cc1ccco1)Nc1nc(-c2ccc(F)cc2)cs1	inconclusive [inhibitor, partial curve]
NC(=O)c1ccc(NC(=O)CS(=O)(=O)c2cn(CC(=O)N3CCCC3)c3ccccc23)cc1	inconclusive [inhibitor, partial curve]
N#Cc1c(NC2CCCCC2)nc(-c2ccco2)c2c1CCCC2	active: 35.5 µM
CC1CCCCN1S(=O)(=O)c1ccc(S(=O)(=O)N(Cc2ccccc2)Cc2ccco2)cc1 (stereo not given)	inconclusive [inhibitor, partial curve]
O=S(=O)(c1ccc(Br)cc1)c1nc(-c2ccco2)oc1NCC1CCCO1 (stereo not given)	active: 20 µM
O=C(NCc1ccco1)C(Cc1ccccc1)N1C(=O)c2ccccc2C1=O (stereo not given)	inconclusive [inhibitor, single point]
O=C(O)COc1ccc2c(c1)O/C(=C\c1ccco1)C2=O	active: 22.4 µM
C#CCN1C(=O)C(O)(CC(=O)/C=C/C=C/c2ccccc2)c2ccccc21 (stereo not given)	inconclusive [inhibitor, partial curve]
Cc1ccc(CCNC(=O)c2cn(C)c3ccc(S(=O)(=O)N4CCCCC4)cc3c2=O)cc1	active: 22.4 µM
C=CCSc1nc(-c2ccc(OC)cc2)c(C#N)c(=O)n1CC=C	inactive
CC(=O)COc1nc2c(c(-c3ccco3)c1C#N)CCc1ccccc1-2	active: 44.7 µM
Cc1ccc(OCC(=O)N(C)CCc2ccccn2)cc1	inconclusive [inhibitor, full curve, poor fit]
CSc1cccc(NC(=O)C2C3C=CC4(O3)C2C(=O)N(CCN2CCOCC2)C4C(=O)NC2CCCCC2)c1 (stereo not given)	inconclusive [inhibitor, partial curve]
COCCn1c(SCc2ccc(F)cc2)nc2c1c(=O)[nH]c(=O)n2C	inconclusive [inhibitor, single point]
O=c1cc(-c2ccc(O)cc2)oc2cc(O)c(C3OC(CO)C(O)C(O)C3O)c(O)c12 (stereo not given)	inconclusive [inhibitor, single point]
O=C(CCS(=O)(=O)c1cccc2nonc12)N1CCCc2ccccc21	active: 35.5 µM
CC(=O)c1cccc(NC(=O)CCS(=O)(=O)c2ccc(Br)s2)c1	active: 39.8 µM
COc1ccc(OC)c(C2C(C(C)=O)=C(O)C(=O)N2CCN2CCOCC2)c1 (stereo not given)	inconclusive [inhibitor, single point]
Cc1[nH]c2ccc(C(=O)N3CCCC3)cc2c1C	inactive
N#CC1=C(SCC(=O)c2ccccc2)NC2=C(C(=O)CCC2)C1c1ccco1 (stereo not given)	inconclusive [inhibitor, partial curve]

SMILES	Potency
CC(=O)C1=C(O)C(=O)N(Cc2ccco2)C1c1ccccc1F (stereo not given)	inconclusive [inhibitor, partial curve]
NC(=O)CC[C@@H]1NC(=O)[C@H](CO)NC(=O)c2cc([N+](=O)[O-])cc(I)c2NCC[C@@H](C(N)=O)NC(=O)[C@H](Cc2ccc(O)cc2)NC1=O	inconclusive [inhibitor, partial curve]
CC/C(=N/Nc1ccccc1C)c1cnnc(SC)n1	inconclusive [inhibitor, single point]
CC(C)OCCCN1CN(S(=O)(=O)c2cccs2)c2nc3ccccc3nc21	inactive
O=C(COC(=O)c1ccc[nH]c1=O)Nc1ccc(S(=O)(=O)N2CCCC2)cc1	inactive
COc1cc(NC(=O)CSC2=Nc3ccccc3N=C(c3ccc(F)cc3)C2)cc(OC)c1	inactive
O=C(O)CCn1cc(/C=C/C(=O)c2ccc(Cl)cc2)c(-c2ccc(Br)cc2)n1	inconclusive [inhibitor, partial curve]
S=C(NCCc1ccccc1)NCc1cccc(Cl)c1	inconclusive [inhibitor, full curve, poor fit]
O=c1ccc(-c2ccc(S(=O)(=O)Nc3ccccc3)o2)n[nH]1	inconclusive [inhibitor, partial curve]
Cc1ccc(S(=O)(=O)Nc2nc3ccccc3nc2NCc2ccco2)cc1	active: 12.6 µM
CCNC(=O)N1c2ccc(OCC)cc2C(C)=CC1(C)C	inactive
CC(C)Cc1ccc(CN2CCCC(NC(=O)CCN3CCOCC3)C2)cc1 (stereo not given)	inactive
COc1ccc([C@@H]2[C@H]3C(=O)N(c4cccc(C(F)(F)F)c4)C(=O)[C@H]3ON2C)cc1	inconclusive [inhibitor, partial curve]
O=C(CSc1ncn(-c2ccccc2)n1)N1CCN(c2ccccc2)CC1	inactive
COCCN(C(=O)CSc1nc2ccc(OC)cc2[nH]1)c1c(N)n(Cc2ccccc2)c(=O)[nH]c1=O	inactive
COc1cccc(NC(=O)CN(C)C(=O)COc2ccc3ccccc3c2)c1	inactive
Cc1ccc(C)c(N2CCN(C(=O)Cn3nc(Cc4cccnc4)c4ccccc4c3=O)CC2)c1	inactive
O=S(=O)(c1ccc(Cl)cc1)c1cnc2ccccc2n1	inconclusive [inhibitor, full curve]
C[C@@H]1CC=C[C@H]2[C@H]1C(=O)N(Cc1ccccc1)[C@H]2c1ccc(-c2ccoc2)cc1F	inconclusive [inhibitor, full curve]
O=C(NCCO)/C(=C\c1ccc([N+](=O)[O-])o1)NC(=O)c1ccccc1	inconclusive [inhibitor, partial curve]
COc1cccc(C(=O)CC(=O)C(=O)Nc2cc(OC)c(OC)c(OC)c2)c1	inconclusive [inhibitor, full curve]
N#CC1=C(N)OC2=C(CC/C2=C\c2ccccc2)C1c1ccccc1 (stereo not given)	active: 11.2 µM
